# In PubChem BioAssay AID686979 (National Center for Advancing Translational Sciences (NCATS), 2013):
# Screen size: about 420,000 compounds; about 50,000 (12%) were called active. Inconclusive results, whose numbers are uncertain, are shown with a selection of clear calls. Calls follow the shape of the dose curve; as a rule, active = well fitted inhibition curve with a large enough effect; inconclusive = small, poorly fitted or top-dose-only effect; inactive = flat fitted curve, though single readings scatter. Potencies of inconclusive entries are left out as doubtful fits.
# Assay: qHTS for Inhibitors of human tyrosyl-DNA phosphodiesterase 1 (TDP1): qHTS in cells in presence of CPT; also: nearly all actives have a fitted effect of over 55% in size
# Settings: chicken DT40 Tdp1-/-;hTDP1 cells + 20 nM CPT, ATP luminescence, 48 h; activity change, negative = growth inhibition: at 46.2 µM (top of the series)
# Outline: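 Chicken DT40 Tdp1-/- cells complemented with human TDP1, 400 cells/well, exposed to compounds plus 20 nM camptothecin for at least 48 h at 37 C; viability read as ATP content by CellTiter-Glo luminescence.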
# % is scaled to controls: 0 for no effect and ±100 for the full control effect; potency is read from the fitted curve at half-maximal effect; tags tell the direction and shape of the fitted curve.
SMILES,"activity change, negative = growth inhibition",Potency
O=C(O)C1CCN(c2ccc(S(=O)(=O)N3CCOCC3)cc2[N+](=O)[O-])CC1,inactive: 7.82%,
Cc1ccc(S(=O)(=O)N=N/C=C2\C=CC=CN2O)cc1,inactive: -23.8%,
CCCNC(=O)C1(C)CCN(Cc2ccc(C(=O)OCC)cc2)C1 (stereo not drawn),,"inconclusive [inhibitor, partial curve]"
CC1CCN(c2ccccc2NC(=S)NC(=O)c2cccs2)CC1,,"inconclusive [inhibitor, single point]"
COc1ccc(NC(=O)/C(C#N)=C/C=C/c2ccco2)cc1,,active: 8.2 µM
COc1ccc(OC)c(N/C(C)=C/C(=O)c2ccc(C)o2)c1,inactive: 5.41%,
O=C1/C(=C/c2ccc3c(c2)OCO3)CCC/C1=C\c1ccc2c(c1)OCO2,inactive: -23.1%,
CC1CC2(NC(=O)NC2=O)C(C)CN1C (stereo not drawn),inactive: 11.8%,
O=C(COC(=O)c1ccccc1O)Nc1cccc(S(=O)(=O)N2CCCC2)c1,inactive: -26.2%,
O=C(CNC(=O)c1ccc(Cl)cc1Cl)OCc1cn2cc(Br)ccc2n1,inactive: 1.46%,
O=C(Nc1cc([N+](=O)[O-])ccc1Cl)C(Sc1ccccc1)c1ccccc1 (stereo not drawn),,"inconclusive [inhibitor, single point]"
CCC(=O)c1ccc(OCC(=O)Nc2ccccc2N2CCOCC2)cc1,,"inconclusive [inhibitor, single point]"
O=C1/C(=C\c2ccco2)CCC/C1=C\c1ccco1,,active: 16.4 µM
Nc1cc(=O)[nH]c(SCc2nnnn2-c2ccc(Cl)cc2)n1,inactive: -6.35%,
CC1Sc2ccc(S(=O)(=O)N3CCC(C(=O)N(C)Cc4ccco4)CC3)cc2NC1=O (stereo not drawn),,active: 14.6 µM
CN(CCCn1ccc(N)nc1=O)Cc1ccco1,inactive: -0.758%,
CCn1c(/C=C/Nc2ccccc2)[n+](CC)c2ccc(Cl)cc21,,active: 23.1 µM
CC(C)NC(=O)c1nc2c(nnn2Cc2cccc(Cl)c2)c(=O)[nH]1,inactive: 0.876%,
CCCCCCCCN1C(=O)[C@H](CC(=O)N2CCN(C(=O)OCC)CC2)C[C@@]2(C(=O)OCC)CCCC=C12,,active: 16.4 µM
CC(C)CSCC1OC(n2cnc3c(N)nccc32)C(O)C1O (stereo not drawn),,"inconclusive [inhibitor, partial curve]"
Cc1ccc(-c2ccc(CN3C(C)C(=O)N(Cc4cn(Cc5ccco5)nn4)CCS3(=O)=O)cc2)cc1 (stereo not drawn),,"inconclusive [inhibitor, single point]"
O=C(O)c1ccc(NC(=O)c2cn(-c3ccccc3)nc2-c2cccc(Cl)c2)cc1,,"inconclusive [inhibitor, single point]"
CC(=O)Nc1cc(-c2ccc(C(=O)N3CCOCC3)cc2)cn2c(-c3ccc(F)c(Cl)c3)cnc12,,active: 23.1 µM
